Reference: paper PMC11499380
Substitutions are numbered along the chain they refer to. These are yes or no findings as the source states them, for the method shown. Some entries that bind do so weakly or less than the wild type. For some assays here: Sequences can lack the tags named with a protein.

Sequences of proteins named here, by UniProt entry; tags and fusion partners are left off.
UniProt Q8TCG2: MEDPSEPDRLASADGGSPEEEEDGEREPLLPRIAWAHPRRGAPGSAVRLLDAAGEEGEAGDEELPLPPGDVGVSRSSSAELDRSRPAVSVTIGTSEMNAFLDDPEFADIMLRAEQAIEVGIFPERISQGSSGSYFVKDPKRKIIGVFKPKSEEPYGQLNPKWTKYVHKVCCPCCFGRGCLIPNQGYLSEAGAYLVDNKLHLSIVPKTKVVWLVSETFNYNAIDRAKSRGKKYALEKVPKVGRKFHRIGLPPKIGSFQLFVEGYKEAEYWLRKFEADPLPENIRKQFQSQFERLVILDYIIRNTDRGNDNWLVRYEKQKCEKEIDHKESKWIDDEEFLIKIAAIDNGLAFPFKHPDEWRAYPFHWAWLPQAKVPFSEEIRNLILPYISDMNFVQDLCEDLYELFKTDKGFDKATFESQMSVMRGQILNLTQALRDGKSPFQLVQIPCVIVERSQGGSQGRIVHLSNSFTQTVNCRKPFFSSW
UniProt O95166: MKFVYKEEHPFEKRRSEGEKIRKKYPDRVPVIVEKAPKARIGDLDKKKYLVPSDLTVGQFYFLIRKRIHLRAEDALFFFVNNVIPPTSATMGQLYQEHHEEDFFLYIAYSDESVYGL

Tests used:
Experiment in all cases: dual-color heterospecies partition (HSP) analysis, fluorescence fluctuation spectroscopy; live transfected cells co-expressing an EGFP-tagged PI 4-kinase and mCherry-tagged GABARAP; two-photon excitation at 1000 nm, 60 s; 24 h after transfection; L-15 medium with 10% fetal bovine serum; co-mobility on cytoplasmic vesicles
[1] = molecular target: T1, EGFP-PI4K2A-(91-478)^7A (rat) (UniProt Q99M64)
T1 sequence: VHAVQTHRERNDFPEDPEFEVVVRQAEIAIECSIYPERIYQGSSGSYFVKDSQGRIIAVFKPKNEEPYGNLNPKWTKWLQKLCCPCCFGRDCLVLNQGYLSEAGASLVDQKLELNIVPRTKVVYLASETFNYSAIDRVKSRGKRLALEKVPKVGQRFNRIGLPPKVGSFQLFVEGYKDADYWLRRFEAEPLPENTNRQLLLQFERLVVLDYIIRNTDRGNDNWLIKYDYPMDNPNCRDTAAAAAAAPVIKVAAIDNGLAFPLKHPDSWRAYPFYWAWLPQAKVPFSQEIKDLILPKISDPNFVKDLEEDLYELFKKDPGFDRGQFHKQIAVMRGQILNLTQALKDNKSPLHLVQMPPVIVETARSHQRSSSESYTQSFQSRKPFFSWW

EGFP-PI4K2B (human) = EGFP-PI4K2B (human) (UniProt Q8TCG2)
[2] = molecular target: T2, EGFP-PI4K2A-(91-478)^WT (rat) (UniProt Q99M64)
T2 sequence: T1 sequence with A240D, A241W, A242V, A243M, A244V, A245R, A246E

EGFP-PI4K2A^7A (rat) = molecular target: T3, EGFP-PI4K2A^7A (rat) (UniProt Q99M64)
T3 sequence: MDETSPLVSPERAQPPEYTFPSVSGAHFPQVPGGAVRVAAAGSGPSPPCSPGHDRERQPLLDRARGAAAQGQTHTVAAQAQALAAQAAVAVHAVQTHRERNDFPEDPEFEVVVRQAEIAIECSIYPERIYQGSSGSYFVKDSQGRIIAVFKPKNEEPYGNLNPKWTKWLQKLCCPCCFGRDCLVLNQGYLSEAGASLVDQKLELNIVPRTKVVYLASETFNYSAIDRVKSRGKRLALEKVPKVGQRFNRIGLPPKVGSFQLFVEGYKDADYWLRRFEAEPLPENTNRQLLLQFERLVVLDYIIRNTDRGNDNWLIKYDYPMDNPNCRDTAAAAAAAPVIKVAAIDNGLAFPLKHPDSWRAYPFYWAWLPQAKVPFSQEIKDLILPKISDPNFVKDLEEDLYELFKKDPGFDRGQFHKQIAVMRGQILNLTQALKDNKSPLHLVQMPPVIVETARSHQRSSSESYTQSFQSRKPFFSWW

[3] = molecular target: T4, EGFP-PI4K2A (91-478) with residues 333MVRE336 mutated to alanine (rat) (UniProt Q99M64)
T4 sequence: T1 sequence with A240D, A241W, A242V

## mCherry-GABARAP (wild type) (from UniProt O95166 1-117)
[1]
  binding: no binding
EGFP-PI4K2B (human)
  binding: no binding
[2]
  binding: binds
EGFP-PI4K2A^7A (rat)
  binding: no binding
[3]
  binding: binds
